Data as given in the supplement of paper PMC8728848.
The list shows a part of the results.

What was measured:
Experiment in all cases: glycan array binding signal (z-score within array); higher = stronger binding
Details in all cases: glycan notation: IUPAC condensed, linker removed
[1] = molecular target: Gal6S(b1-4)Glc6S
Summary of the method: (§1)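 Glycan array binding is given as a within-array Z-score, which can be read as non-binding when negative. The arrays, 3228 of them, came from the Consortium for Functional Glycomics database and were retained only where the protein sequence was available. Z-scores were averaged across arrays of the same protein sequence at different concentrations or buffers and across linkers.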

[2] = molecular target: Gal6S(b1-4)GlcNAc
Summary of the method: as §1

[3] = molecular target: Gal6S(b1-4)GlcNAc6S
Summary of the method: as §1

[4] = molecular target: GalNAc(a1-3)Gal
Summary of the method: as §1

[5] = molecular target: GalNAc(a1-3)GalNAc
Summary of the method: as §1

[6] = molecular target: GalNAc(a1-3)GalNAc(b1-3)Gal(a1-4)Gal(b1-4)Glc
Summary of the method: as §1

[7] = molecular target: GalNAc(a1-3)GalNAc(b1-3)Gal(a1-4)Gal(b1-4)GlcNAc
Summary of the method: as §1

[8] = molecular target: GalNAc(b1-3)Gal
Summary of the method: as §1

[9] = molecular target: GalNAc(b1-3)Gal(a1-4)Gal(b1-4)GlcNAc
Summary of the method: as §1

[10] = molecular target: GalNAc(b1-3)Gal(a1-4)Gal(b1-4)GlcNAc(b1-3)Gal(b1-4)Glc
Summary of the method: as §1

[11] = molecular target: GalNAc(b1-3)Gal(a1-6)Gal(b1-4)Glc
Summary of the method: as §1

[12] = molecular target: GalNAc(b1-3)GalNAc
Summary of the method: as §1

[13] = molecular target: GalNAc(b1-3)GlcNAc
Summary of the method: as §1

[14] = molecular target: GalNAc(b1-4)Gal(b1-4)Glc
Summary of the method: as §1

[15] = molecular target: GalNAc(b1-4)GlcNAc
Summary of the method: as §1

[16] = molecular target: GalNAc(b1-4)GlcNAc(b1-2)Man
Summary of the method: as §1

[17] = molecular target: GalNAc(b1-4)GlcNAc(b1-2)Man(a1-3)[GalNAc(b1-4)GlcNAc(b1-2)Man(a1-6)]Man(b1-4)GlcNAc(b1-4)GlcNAc
Summary of the method: as §1

[18] = molecular target: GalNAc(b1-4)GlcNAc(b1-3)GalNAc(b1-4)GlcNAc
Summary of the method: as §1

[19] = molecular target: GalNAc(b1-4)GlcNAc6S
Summary of the method: as §1

[20] = molecular target: GalNAc(b1-6)GalNAc
Summary of the method: as §1

[21] = molecular target: GalNAc3S(b1-4)GlcNAc
Summary of the method: as §1

[22] = molecular target: GalNAc3S(b1-4)GlcNAc3S
Summary of the method: as §1

[23] = molecular target: GalNAc3S(b1-4)[Fuc(a1-3)]GlcNAc
Summary of the method: as §1

[24] = molecular target: GalNAc4S6S(b1-4)GlcNAc
Summary of the method: as §1

[25] = molecular target: GalNAc6S(b1-4)GlcNAc
Summary of the method: as §1

[26] = molecular target: Glc(a1-4)Glc
Summary of the method: as §1

[27] = molecular target: Glc(a1-4)Glc(a1-4)Glc(a1-4)Glc
Summary of the method: as §1

[28] = molecular target: Glc(a1-6)Glc(a1-6)Glc
Summary of the method: as §1

[29] = molecular target: Glc(a1-6)Glc(a1-6)Glc(a1-6)Glc
Summary of the method: as §1

[30] = molecular target: Glc(b1-4)Glc
Summary of the method: as §1

[31] = molecular target: Glc(b1-6)Glc
Summary of the method: as §1

[32] = molecular target: GlcA(b1-3)Gal
Summary of the method: as §1

[33] = molecular target: GlcA(b1-3)GlcNAc
Summary of the method: as §1

[34] = molecular target: GlcA(b1-6)Gal
Summary of the method: as §1

[35] = molecular target: GlcA3S(b1-3)Gal(b1-4)GlcNAc(b1-2)Man
Summary of the method: as §1

[36] = molecular target: GlcA3S(b1-3)Gal(b1-4)GlcNAc(b1-3)Gal(b1-4)Glc
Summary of the method: as §1

[37] = molecular target: GlcNAc(a1-3)Gal(b1-4)GlcNAc
Summary of the method: as §1

[38] = molecular target: GlcNAc(a1-4)Gal(b1-3)GlcNAc
Summary of the method: as §1

[39] = molecular target: GlcNAc(a1-4)Gal(b1-4)GalNAc
Summary of the method: as §1

[40] = molecular target: GlcNAc(a1-4)Gal(b1-4)GlcNAc
Summary of the method: as §1

[41] = molecular target: GlcNAc(a1-4)Gal(b1-4)GlcNAc(b1-3)Gal(b1-4)Glc
Summary of the method: as §1

[42] = molecular target: GlcNAc(a1-4)Gal(b1-4)GlcNAc(b1-3)Gal(b1-4)GlcNAc
Summary of the method: as §1

[43] = molecular target: GlcNAc(a1-4)Gal(b1-4)GlcNAc(b1-3)Gal(b1-4)GlcNAc(b1-3)Gal(b1-4)GlcNAc
Summary of the method: as §1

[44] = molecular target: GlcNAc(a1-4)Gal(b1-4)GlcNAc(b1-3)Gal(b1-4)[Fuc(a1-3)]GlcNAc(b1-3)Gal(b1-4)[Fuc(a1-3)]GlcNAc
Summary of the method: as §1

[45] = molecular target: GlcNAc(a1-6)Gal(b1-4)GlcNAc
Summary of the method: as §1

B1: PNGase F (Flavobacterium meningosepticum) (protein)
chain: GIPAPADNTVNIKTFDKVKNAFGDGLSQSAEGTFTFPADVTAVKTIKMFIKNECPNKTCDEWDRYANVYVKNKTTGEWYEIGRFITPYWVGTEKLPRGLEIDVTDFKSLLSGNTELKIYTETWLAKGREYSVDFDIVYGTPDYKYSAVVPVVQYNKSSIDGVPYGKAHTLALKKNIQLPTNTEKAYLRTTISGWGHAKPYDAGSRGCAEWCFRTHTIAINNSNTFQHQLGALGCSANPINNQSPGNWTPDRAGWCPGMAVPTRIDVLNNSLIGSTFSYEYKFQNWTNNGTNGDAFYAISSFVIAKSNTPISAPVVTNLDPHHHHHH
[1]
  glycan array binding signal (z-score): -0.41
[2]
  glycan array binding signal (z-score): -0.269
[3]
  glycan array binding signal (z-score): -0.154
[4]
  glycan array binding signal (z-score): -0.08
[5]
  glycan array binding signal (z-score): -0.109
[6]
  glycan array binding signal (z-score): -0.327
[7]
  glycan array binding signal (z-score): -0.175
[8]
  glycan array binding signal (z-score): 0.356
[9]
  glycan array binding signal (z-score): -0.194
[10]
  glycan array binding signal (z-score): -0.311
[11]
  glycan array binding signal (z-score): -0.296
[12]
  glycan array binding signal (z-score): -0.141
[13]
  glycan array binding signal (z-score): -0.074
[14]
  glycan array binding signal (z-score): 1.15
[15]
  glycan array binding signal (z-score): -0.08
[16]
  glycan array binding signal (z-score): -0.368
[17]
  glycan array binding signal (z-score): -0.128
[18]
  glycan array binding signal (z-score): 0.165
[19]
  glycan array binding signal (z-score): 0.013
[20]
  glycan array binding signal (z-score): -0.208
[21]
  glycan array binding signal (z-score): -0.265
[22]
  glycan array binding signal (z-score): -0.261
[23]
  glycan array binding signal (z-score): -0.257
[24]
  glycan array binding signal (z-score): -0.387
[25]
  glycan array binding signal (z-score): -0.335
[26]
  glycan array binding signal (z-score): 0.159
[27]
  glycan array binding signal (z-score): 0.48
[28]
  glycan array binding signal (z-score): 0.226
[29]
  glycan array binding signal (z-score): 0.15
[30]
  glycan array binding signal (z-score): 0.492
[31]
  glycan array binding signal (z-score): 0.062
[32]
  glycan array binding signal (z-score): 0.135
[33]
  glycan array binding signal (z-score): -0.118
[34]
  glycan array binding signal (z-score): 0.121
[35]
  glycan array binding signal (z-score): -0.124
[36]
  glycan array binding signal (z-score): 0.014
[37]
  glycan array binding signal (z-score): -0.344
[38]
  glycan array binding signal (z-score): -0.153
[39]
  glycan array binding signal (z-score): 1.26
[40]
  glycan array binding signal (z-score): 0.046
[41]
  glycan array binding signal (z-score): -0.293
[42]
  glycan array binding signal (z-score): -0.179
[43]
  glycan array binding signal (z-score): -0.412
[44]
  glycan array binding signal (z-score): 0.383
[45]
  glycan array binding signal (z-score): -0.149
